# The campaign covered roughly 52,000 compounds. About 4,300 (8.3%) were called active. No stated cut-off is given here; in the data, active means survival mostly below about 52% (no sharp cut-off); inactive means mostly above about 56%. The list shows a part of the results.
# System: DeltatarO mutant
# Assay: growth inhibition of S. aureus wild type versus tarO mutant, primary screen, teichoic acid synthesis inhibitors, RN4220, OD600 (AID 463173)
# Conditions: OD600, 18 h, active compounds read low, screened at 18.75 µg/mL (by protocol)
row,Compound,survival
1,Cc1cc(C)cc(NC(=O)c2ccc3c(O)c(S(=O)(=O)c4ccccc4)c(=O)[nH]c3c2)c1,inactive: 79%
2,Cc1c(Cl)cccc1NC(=O)CSc1ncc(S(=O)(=O)c2ccc(C(C)C)cc2)c(=O)[nH]1,inactive: 54%
3,COc1cc(Cl)c(C)cc1NC(=O)c1ccc(CN2C(=O)CCn3nc(C)cc32)cc1,inactive: 75%
4,COC(=O)c1ccccc1NC(=O)C1(c2cccs2)CCOCC1,inactive: 83%
5,CCCCOC(=O)c1ccc(NC(=O)Cc2coc3c(C)c(C)ccc23)cc1,inactive: 79%
6,Cc1ccc(OCC(=O)N(Cc2ccco2)c2ccccn2)cc1,inactive: 59%
7,CCNC(=O)C1CCCN(c2nnc(C)c3c(C)n(-c4ccc(C)cc4)nc23)C1 (centres undefined),inactive: 78%
8,CCC(=O)Nc1ccccc1-c1nnn(CC(=O)N2c3ccccc3CC2C)n1 (centres undefined),inactive: 92%
9,CCOC(=O)c1[nH]c(C)c(CCC(=O)NCc2cccc(C)c2)c1C,inactive: 82%
10,CCOC(=O)c1c(C)[nH]c(C)c1S(=O)(=O)N1CCCC(C(=O)Nc2ccc(C)c(N(C)C)c2)C1 (centres undefined),inactive: 88%
11,CCOC(=O)C1=NN(c2ccc(C)cc2)CC1C(=O)OC (centres undefined),inactive: 73%
12,COc1cccc(NC(=O)CSc2nccn2Cc2ccc3c(c2)OCO3)c1,inactive: 70%
13,Cc1nc(-n2nc(C)c(Cc3ccc(Cl)cc3)c2C)sc1C(=O)N1CCCCC1C (centres undefined),inactive: 99%
14,O=C(CSCc1ccccc1Cl)NCc1ccc(Cl)c(Cl)c1,inactive: 144%
15,CCC(C)(C)N1CC(=O)N(Cc2ccccc2)C(c2ccc(OC)cc2)C1=O (centres undefined),inactive: 78%
16,CC(=O)c1cccc(NC(=O)Cn2c(=O)oc3cc(S(=O)(=O)NC4CCCC4)ccc32)c1,inactive: 83%
17,NNC(=O)CCC(=O)Nc1ccccc1,inactive: 95%
18,CC(=O)c1ccc(Nc2nc3ccccc3nc2-n2nc(C)cc2C)cc1,active: 44%
19,CC(=O)N1CCN(c2nc3c(C)ccc(Cl)c3s2)CC1,inactive: 68%
20,COc1ccc2c(c1)CCc1c(C(=O)Nc3c(C)nn(Cc4ccc(Cl)cc4)c3C)noc1-2,inactive: 107%
21,COc1ccc(/C=C\c2onc(C)c2S(=O)(=O)N2CCC(C(=O)Nc3cccc(C)c3C)CC2)cc1,inactive: 68%
22,CCOc1ccc(NC(=O)Cn2nnc(C(=O)NCc3cccs3)c2N)cc1,inactive: 92%
23,Cc1cccc(C)c1NC(=O)CCS(=O)(=O)c1ccc2c(c1)CC(C)N2C(=O)C1CC1 (centres undefined),inactive: 81%

row,Compound,survival
1,CCOc1ccccc1Nc1nc(-c2ccc(C)cc2)c(CC(=O)O)s1,inactive: 55%
2,O=c1[nH]c2ccc(NCc3ccc(-c4ccc(Cl)cc4)o3)cc2[nH]1,inactive: 105%
3,CCC1(CC)C(=O)N(C)C(=O)NC1=Nc1ccccc1,inactive: 94%
4,Cc1ccc(NC(=O)CN2C(=O)CC(c3ccc(F)cc3)=Nc3ccccc32)cc1F,inactive: 74%
5,Nc1nnc(SCC(=O)N2CCN(c3ccccc3)CC2)s1,inactive: 93%
6,COc1ccc(OC)c(NC(=O)C(C)n2nc(C)c3c(C)n(-c4ccccc4)nc3c2=O)c1 (centres undefined),inactive: 93%
7,COc1ccc(C2c3c(oc4ccc(Cl)cc4c3=O)C(=O)N2CCCN(C)C)cc1OC (centres undefined),inactive: 79%
8,COc1cccc(CNC(=O)CN2C(=O)N(c3c(C)cccc3C)S(=O)(=O)c3ccccc32)c1OC,inactive: 70%
9,CCC(=O)Nc1nc(-c2ccc(OC)cc2)cs1,inactive: 97%
10,CCn1c(N2CCN(CC(=O)c3ccc(OC)cc3)CC2)nc2ccccc21,inactive: 72%
11,CCc1nn(CC(=O)N2CCN(c3cc(C)ccc3C)CC2)c(=O)c2cc3occc3n12,inactive: 74%
12,O=S(=O)(Nc1ccc(-c2ccc(N3CCCCCC3)nn2)cc1)c1cccc(C(F)(F)F)c1,inactive: 117%
13,COc1ccc(CCNc2nc(SCc3ccc(F)cc3)nc3ccccc23)cc1OC,inactive: 99%
14,CCc1ccc(-c2nc(SCC(=O)NCC3CCCO3)c(-c3ccc(F)cc3)[nH]2)cc1 (centres undefined),inactive: 80%
15,CNC(=O)c1ccc(CSc2nc3cccnc3n2Cc2cccc(F)c2)cc1,inactive: 118%
16,N#Cc1ccc(NC(=O)c2cc(-c3cccc(Cl)c3)on2)cc1,inactive: 71%
17,O=C(Nc1cccc(-c2nc3ccccc3[nH]2)c1)c1ccccc1F,active: 29%
18,Cc1ccsc1CN(C(=O)c1ccc(Br)cc1)C1CCS(=O)(=O)C1 (centres undefined),inactive: 90%
19,Cc1ccc(NC(=O)N2CCN3CCCCC3C2)cc1F (centres undefined),inactive: 124%
20,COc1ccccc1CNC(=O)c1ccc2c(c1)nnn2C1CCCC1,inactive: 124%
21,COc1ccccc1NC(=O)Cn1cc(C(=O)c2ccncc2)c(=O)c2cc(C)ccc21,inactive: 117%
22,COc1ccc(Cl)cc1NC(=O)C1CCN(S(=O)(=O)c2ccc3c(c2)CCCN3C(=O)C2CCC2)CC1,inactive: 90%
23,Cc1cc(=O)[nH]c2nnc(SCC(=O)Nc3ccc(F)cc3F)n12,inactive: 86%

row,Compound,survival
1,Cc1ccc(C)c(NC(=O)N2CCc3cc(S(=O)(=O)N4CCC(C)CC4)ccc32)c1,inactive: 85%
2,Cc1ccc2nc(-c3cccc(Cl)c3)c(Nc3ccc4c(c3)OCO4)n2c1,inactive: 75%
3,CN1C(=O)/C(=C2\SC(=S)N(C(CC(=O)O)C(=O)O)C2=O)c2ccccc21 (centres undefined),inactive: 79%
4,C=CCc1ccccc1OCCn1c(C2CC(=O)N(Cc3ccc(F)cc3)C2)nc2ccccc21 (centres undefined),active: 0%
5,CC(Oc1ccccc1)C(=O)OCc1cc(=O)n2nc(C(C)C)sc2n1 (centres undefined),inactive: 115%
6,COc1ccccc1CCNC(=O)C(=O)NCC(c1cccs1)S(=O)(=O)c1ccc(F)cc1 (centres undefined),inactive: 95%
7,COc1ccccc1C(=O)N1c2ccccc2C(C)(c2ccc(Cl)cc2)CC1(C)C (centres undefined),active: 0%
8,COC(=O)CSc1nc2sc3c(c2c(=O)n1Cc1ccccc1)CCC(C(C)(C)C)C3 (centres undefined),inactive: 66%
9,COc1ccc(-c2c3c(nc4sc(C(=O)Nc5ccccc5F)c(N)c24)CC(C)(C)CC3=O)cc1,inactive: 135%
10,CC(C)NC(=O)C(C)Oc1ccccc1 (centres undefined),inactive: 93%
11,CCc1ccc(CNC(=O)c2nn(-c3ccc(OC)c(Cl)c3)c(=O)c3c2c2ccccc2n3C)cc1,inactive: 104%
12,CCN(Cc1ccccc1)C(=O)CN1C(=O)CSc2ccc(S(=O)(=O)N(CC)CC)cc21,inactive: 87%
13,COc1ccc(CNn2cnnc2SCc2ccc(F)cc2)cc1OC,inactive: 73%
14,COc1ccc(NC(=O)c2cc(S(=O)(=O)N3CCCCC3)cn2C)cc1Cl,inactive: 78%
15,O=C(Nc1ccc(S(=O)(=O)N2CCCCC2c2cccnc2)cc1)c1ccc(F)cc1 (centres undefined),inactive: 91%
16,CCc1nnc2c3ccccc3nc(Nc3ccc(F)c(Cl)c3)n12,inactive: 62%
17,CCCC(CCC)C(=O)Nc1nnc2n1CCS2,inactive: 82%
18,CN(C)c1ccc(-c2noc(C3CC(=O)N(c4ccc5c(c4)OCCO5)C3)n2)cc1 (centres undefined),inactive: 92%
19,Cc1cccc(N(C)C(=O)c2cc(S(=O)(=O)N3CCCCC3)c[nH]2)c1,inactive: 72%
20,O=C(Nc1ccc(Cl)cc1)c1cc2c(Cl)nc3ccccc3c2s1,inactive: 94%
21,Cc1ccc(-c2nc3nc(C)cc(N4CCN(c5cccc(C)c5)C(C)C4)n3n2)cc1 (centres undefined),inactive: 99%
22,O=C(Cn1c(=O)nc(-c2ccccc2F)c2cc(Cl)ccc21)Nc1ccccc1C(F)(F)F,inactive: 96%
23,Cc1nnc2sc(-c3ccc(N)cc3)nn12,inactive: 91%

row,Compound,survival
1,COc1cc2oc(=O)c(CC(=O)NCCc3ccccc3F)c(C)c2cc1OC,inactive: 55%
2,Cc1ccc(NC(=O)C2CCCN(S(=O)(=O)c3ccc4[nH]c(=O)ccc4c3)C2)cc1C (centres undefined),inactive: 78%
3,CCCCN(C)CCCNC(=O)CN1C(=O)CSc2ccc(S(=O)(=O)N3CCOCC3)cc21,inactive: 92%
4,CCCCNC(=O)Cn1ncc2c(C)n(Cc3cccc(Cl)c3)c(C)c2c1=O,inactive: 93%
5,O=C(NCc1cccs1)c1nn(-c2ccccc2F)nc1CO,inactive: 91%
6,CCC1Oc2ccc(C)cc2N(CC(=O)N(Cc2cccnc2)Cc2cccc(OC)c2)C1=O (centres undefined),inactive: 80%
7,COc1ccc(-c2nn(CC(=O)NCc3ccccc3)c3c2cnc2ccc(F)cc23)cc1,inactive: 117%
8,CCOc1ccccc1NC(=O)CN1C(=O)COc2ccc(S(=O)(=O)Nc3ccccc3)cc21,inactive: 77%
9,CCCCC(=O)N1CCN(c2nc3c(C)c(C)ccc3s2)CC1,active: 46%
10,CCCCNc1cc(N2CCN(C3CCCCC3)CC2)c2noc3c2c1C(=O)c1ccccc1-3,active: -5%
11,Cc1cc(C)c(NC(=O)CSc2cn(CC(=O)N3CCOCC3)c3ccccc23)c(C)c1,inactive: 103%
12,O=C(NCC1CCCO1)C1CC(=O)N(c2ccccc2)C1 (centres undefined),inactive: 101%
13,Cc1ccc(Cl)cc1NC(=O)c1cc(-c2ccc3c(c2)OCCO3)on1,active: 34%
14,O=C(Cc1ccc(NC(=O)N2CCCCc3ccccc32)cc1)Nc1ccccc1Br,inactive: 73%
15,Cc1cccc(NC(=O)CN(C)S(=O)(=O)c2cnc[nH]2)c1C,inactive: 97%
16,Cc1ccccc1CN1c2ccccc2-c2nc(SCC(=O)Nc3cc(F)ccc3F)ncc2S1(=O)=O,inactive: 89%
17,Cc1cc(C)c(NC(=O)CN2C(=O)CCn3nc(-c4cccn4C)cc32)c(C)c1,inactive: 89%
18,Cc1ccc(-n2ncc(C(=O)NCCCN3CCN(C)CC3)c2C2CCN(C(=O)OC(C)(C)C)CC2)cc1,inactive: 96%
19,COc1ccc(-c2nnc(SCC(=O)NCCc3ccccc3)nc2-c2ccc(OC)cc2)cc1,inactive: 101%
20,Cc1cccc(C)c1OCC(=O)Nc1c(C(=O)c2ccccc2)oc2ccccc12,inactive: 72%
